Where two headings read alike, the source gives them in different places.
What was measured:
[1] = biological target: the molecule itself; assay: time-resolved fluorescence quenching
[2] = biological target: the molecule itself; assay: time-resolved fluorescence quenching; remark: listed apart in the source
[3] = biological target: the molecule itself; assay: right-angle light scattering

B1: SRSF1Δ[…] (natural protein)
chain: not shown
stoichiometry N [1]: ~12 molecules per microphase | stoichiometry N [2]: ~50 molecules per microphase | threshold concentration for microphase separation (cμ) [3]: 0.45 ± 0.05 µM
